The text below walks through data of PubChem BioAssay AID463173 (ICCB-Longwood Screening Facility, Harvard Medical School, 2010).

Hit rate of the full screen: of about 52,000 compounds, about 4,300 (8.3%) were called active. Cut-off read from the data, not from the text of the source: active = survival mostly below about 52% (no sharp cut-off); inactive = mostly above about 56%. Some of the results follow.

This assay relates to DeltatarO mutant. The assay can be described thus: S. aureus survival, RN4220 and DeltatarO strains – OD600, teichoic acid synthesis inhibitors, primary screen (AID 463173). The settings on record: S. aureus RN4220 wild type/DeltatarO growth, OD600, 18 h, active compounds read low, screened at 18.75 µg/mL (by protocol).
For the compound `Cc1ccc2ncc(C(=O)NC(C)c3ccccc3)c(=O)n2c1` (configuration not stated), the survival was inactive: 97%.

In the case of `CCc1nn(CC(=O)NCCCc2ccccc2)c(=O)c2cc3c(OC)cccc3n12`, the survival is inactive: 85%.

For `COc1ccc(CNC(=O)c2ccc(CSc3nc4ccncc4n3Cc3ccccc3F)cc2)cc1`, the survival was inactive: 62%.

Turning to `CCc1cccc(NC(=O)CSc2ncc3c(n2)-c2ccccc2N(CC)S3(=O)=O)c1`, the survival is inactive: 101%.

Turning to `COc1ccc(NC(=O)C(C)n2nc(-c3cc(C)ccc3C)c3c(c2=O)CCCC3)cc1` (configuration not stated), the survival was active: 38%.

Regarding `O=C(NCCc1ccccc1)C(=O)NCC(c1ccco1)S(=O)(=O)c1ccccc1` (configuration not stated), the survival was inactive: 77%.

In the case of `COCCNC(=O)CSc1nc2cc3c(cc2c(=O)n1Cc1ccc(C(=O)NCCc2ccc(OC)c(OC)c2)cc1)OCO3`, the survival is inactive: 88%.

For the compound `CCOc1ccc(NC(=O)CSc2nnc(-c3ccncc3)n2-c2ccccc2)cc1`, the survival was inactive: 122%.

For `Cn1cc(S(=O)(=O)N2CCCCC2)cc1C(=O)N1CCN(c2ccccc2F)CC1`, the survival was inactive: 95%.

As for `COc1cc(OC)cc(C(=O)c2coc3ccc(O)c(CN4CCOCC4)c23)c1`, the survival was inactive: 77%.

Turning to `COc1cccc(-c2csc(-c3c(N)c(C(=O)c4ccccc4)n4ccccc34)n2)c1`, the survival is inactive: 70%.

`O=C(CSc1nc2c([nH]c3ccccc32)c(=O)n1-c1ccc(Cl)cc1)N1CCCCCC1`: the survival is inactive: 76%.

`CCOC(=O)c1ccccc1NC(=O)Cn1c(=O)n(CCCC(=O)NCc2ccc3c(c2)OCO3)c(=O)c2ccccc21`: the survival is inactive: 67%.

On to `CC(C)(CO)NC(=O)c1ccc(Cl)c(S(=O)(=O)N2CCCCC2)c1`, for which the survival is inactive: 73%.

Turning to `CCOc1ccc(Nc2ncnc3c2cnn3-c2ccc(F)cc2)cc1`, the survival was inactive: 76%.

Consider `CCOC(=O)C(=O)Nc1nnc2n1CCS2`, for which the survival is inactive: 76%.

As for `COc1ccc(NC(=O)Cn2c(=O)n(Cc3ccccc3)c(=O)c3oc4ccccc4c32)cc1Cl`, the survival was inactive: 85%.

For the compound `Cc1nc2c(C(=O)NCc3ccccc3Cl)cnn2c(C)c1Cc1ccccc1`, the survival was inactive: 79%.

Take `Cc1nc(N2CCCC2)ncc1C(=O)N1CCN(c2ccc(Cl)cc2)CC1`: the survival is inactive: 80%.

Consider `CCOc1ccc(NC(=O)Cn2nnc(C(=O)NCCc3ccccc3)c2N)cc1`, for which the survival is inactive: 76%.

For the compound `COc1cc(NC(=O)N2CCC3(CC2)Nc2ccccc2-n2cccc23)cc(OC)c1OC`, the survival was inactive: 101%.

Consider `O=C(CSc1nc2c([nH]c3ccccc32)c(=O)n1-c1ccccc1)Nc1ccc(Cl)c(Cl)c1`, for which the survival was inactive: 77%.

Consider `CCc1nn(CC(=O)Nc2c(C)cccc2C)c(=O)c2cc3sccc3n12`, for which the survival is inactive: 87%.

For `CNC(=O)c1c(NC(=O)Cc2coc3ccc(C)cc23)sc2c1CCCC2`, the survival was inactive: 53%.

Consider `COc1ccc(-c2noc(-c3ccc(NCC4CCCO4)c([N+](=O)[O-])c3)n2)cc1` (configuration not stated), for which the survival is active: 42%.

`O=C(Nc1ccccc1C(=O)NC1CCCC1)NC1CCCC1`: the survival is inactive: 70%.

On to `COc1ccc(CN(Cc2ccco2)C(=O)c2cc3ccccc3oc2=O)c(OC)c1`, for which the survival was active: 40%.

As for `O=C(CSc1nnc(-c2ccccc2F)o1)Nc1ccccc1Cl`, the survival was inactive: 113%.

`COc1ccc(CCNC(=O)Cn2cc(S(=O)(=O)Cc3ccccc3Cl)c3ccccc32)cc1OC`: the survival was inactive: 80%.

Consider `O=C(CSc1nnc(-c2ccc(S(=O)(=O)N3CCOCC3)cc2)o1)c1c[nH]c2ccccc12`, for which the survival is inactive: 95%.

On to `Cc1ccccc1C(=O)N1CCC(C(=O)NC2CCCCCC2)CC1`, for which the survival is inactive: 71%.

Turning to `Brc1ccc2ncnc(NCCCN3CCOCC3)c2c1`, the survival is inactive: 91%.

As to `CCOC(=O)c1ccc(NC(=O)c2cn(-c3ccccc3)nc2-c2ccc(OC)c(OC)c2)cc1`, the survival was inactive: 129%.

On to `O=C(Nc1cccc(-c2nc3cccnc3s2)c1)c1cccc(Br)c1`, for which the survival is active: 32%.

As for `N#Cc1ccccc1NC(=O)C(=O)NCCc1csc(-c2ccc(F)cc2)n1`, the survival was inactive: 83%.

For the compound `Cc1ccc(S(=O)(=O)c2nc(-c3cccs3)oc2SC(C)C)cc1`, the survival is inactive: 66%.

As to `CCNC(=O)CC1C(=O)N(c2ccc(C)cc2)C(=O)N1CCC(C)C` (configuration not stated), the survival was inactive: 91%.

In the case of `O=C(Cn1c(=O)oc2cc(S(=O)(=O)N3CCCC3)ccc21)Nc1ccc(F)cc1F`, the survival is inactive: 77%.

In the case of `COc1ccc2c(Sc3ccc(Cl)cc3)c(C(=O)N3CCC(C)CC3)[nH]c2c1`, the survival was inactive: 64%.

As for `COc1ccccc1NC(=O)C1=C(C)Nc2sc(C#N)c(N)c2C1c1ccco1` (configuration not stated), the survival is inactive: 76%.

Turning to `COc1ccccc1NC(=O)CSc1oc(-c2ccccc2)nc1S(=O)(=O)c1ccc(C)cc1`, the survival was inactive: 158%.

On to `CN(C)c1ccc(C2NCCS2)cc1` (configuration not stated), for which the survival is inactive: 70%.

As for `CCOC(=O)c1cnc2c(-c3ccccc3)c(C(F)(F)F)nn2c1C`, the survival was inactive: 88%.

`O=C(CSc1c2c(nc3cc(Cl)ccc13)CCCC2)N1CCN(c2ccccc2F)CC1`: the survival was inactive: 50%.

On to `CCOC(=O)c1noc2ncn(CC(=O)Nc3cccc(Cl)c3)c(=O)c12`, for which the survival is inactive: 77%.

With `O=C(COc1ccc2ccccc2c1)NC1CC(=O)N(c2ccccc2)C1` (configuration not stated), the survival is inactive: 88%.

As for `Cc1ccc2nc(-c3cccnc3)c(Nc3ccc(C(C)C)cc3)n2c1`, the survival was inactive: 94%.

Take `Cc1nc(-c2ccc(S(=O)(=O)N3CCN(c4cc(Cl)ccc4C)CC3)cc2)co1`: the survival is inactive: 90%.

As to `O=C(NCCc1ccc(Cl)cc1)C1COc2ccccc2C1` (configuration not stated), the survival was inactive: 69%.

As to `Cc1cn2c(=O)c(S(=O)(=O)N3CCN(c4cc(Cl)ccc4C)CC3)c(C)nc2s1`, the survival is inactive: 94%.

Regarding `CC1CCN(C(=O)c2cccc(Cl)c2)CC1`, the survival was inactive: 93%.

For `CSCCC(NS(=O)(=O)c1ccc2c(c1)oc(=O)n2C)C(=O)N1CCN(c2ccc(C(C)=O)cc2)CC1` (configuration not stated), the survival is inactive: 84%.

Turning to `COc1cccc(C(=O)NCC(=O)OCc2cc(=O)n3ccsc3n2)c1`, the survival is inactive: 104%.

`CCc1ccccc1NC(=O)c1ccc(=O)n(Cc2ccc(F)cc2)c1`: the survival is inactive: 67%.

For `CCc1ccc(-n2c(=O)c3cccnc3n2CC(=O)Nc2cc(OC)ccc2OC)cc1`, the survival is inactive: 95%.

For the compound `Cc1ccc(C(=O)Nc2nc(-c3nnn(-c4cccc(C(F)(F)F)c4)c3C)ns2)cc1`, the survival was inactive: 60%.

On to `COc1cc(OC)cc(C(=O)Nc2nnc3n2CCS3)c1`, for which the survival was inactive: 73%.
